About 14,000 (4.5%) of roughly 310,000 compounds showed an effect of 50% or more. The effect is printed as a negative number. This is one part of the list.
molecular target: human ether-à-go-go-related gene (hERG) potassium channel (human, UniProt Q12809); test: primary screen, population patch clamp on CHO cells stably expressing hERG
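Also: peak tail current of the secondary pulse compared with the same well before compound.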

human ether-à-go-go-related gene (hERG) potassium channel, sequence (Q12809 whole entry, looked up): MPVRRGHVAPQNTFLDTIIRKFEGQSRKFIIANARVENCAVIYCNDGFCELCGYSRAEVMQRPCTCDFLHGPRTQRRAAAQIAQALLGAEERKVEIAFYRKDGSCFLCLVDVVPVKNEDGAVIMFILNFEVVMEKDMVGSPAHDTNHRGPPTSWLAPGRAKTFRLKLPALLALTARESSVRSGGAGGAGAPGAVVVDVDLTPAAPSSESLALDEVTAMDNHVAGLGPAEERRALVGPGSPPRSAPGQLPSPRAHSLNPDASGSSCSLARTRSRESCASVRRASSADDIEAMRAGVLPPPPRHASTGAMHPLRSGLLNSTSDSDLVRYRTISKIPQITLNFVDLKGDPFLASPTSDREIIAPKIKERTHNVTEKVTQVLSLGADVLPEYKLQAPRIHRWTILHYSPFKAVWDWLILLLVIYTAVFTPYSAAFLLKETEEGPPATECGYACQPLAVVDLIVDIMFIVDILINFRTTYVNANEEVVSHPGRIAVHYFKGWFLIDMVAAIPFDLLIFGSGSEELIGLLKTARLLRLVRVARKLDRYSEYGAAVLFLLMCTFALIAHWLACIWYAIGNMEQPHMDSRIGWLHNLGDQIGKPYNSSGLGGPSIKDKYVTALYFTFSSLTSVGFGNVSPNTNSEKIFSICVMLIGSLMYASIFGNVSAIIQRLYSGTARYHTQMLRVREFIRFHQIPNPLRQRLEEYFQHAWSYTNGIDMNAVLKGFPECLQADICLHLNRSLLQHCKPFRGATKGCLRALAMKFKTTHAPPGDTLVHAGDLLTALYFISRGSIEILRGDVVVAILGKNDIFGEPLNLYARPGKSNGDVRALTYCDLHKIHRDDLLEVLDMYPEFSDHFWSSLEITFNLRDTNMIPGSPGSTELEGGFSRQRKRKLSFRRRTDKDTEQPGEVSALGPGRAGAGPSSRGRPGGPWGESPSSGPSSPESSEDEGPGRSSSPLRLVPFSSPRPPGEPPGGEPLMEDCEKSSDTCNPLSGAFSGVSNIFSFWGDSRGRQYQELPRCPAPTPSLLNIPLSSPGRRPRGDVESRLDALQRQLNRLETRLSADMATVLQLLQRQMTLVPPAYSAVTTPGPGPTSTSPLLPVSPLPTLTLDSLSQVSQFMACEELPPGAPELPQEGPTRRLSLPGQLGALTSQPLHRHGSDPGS

| SMILES | hERG current change (%, negative = inhibition) at 10uM |
| --- | --- |
| CCC1(CC)C(=O)C2=C3C1[C@H](C(=O)OC)C=C(C(=O)OC)C[C@H]3n1c(=O)n(C)c(=O)n1[C@H]2C (stereo partly drawn) | 23.5% |
| CCOC(=O)c1ccc(NC(=O)N2CCN(C3CCCCC3)CC2)cc1 | -29.7% |
| COc1ccc(CCNC(=O)c2nnc(Cc3c(F)cccc3Cl)o2)cc1OC | 13.9% |
| Cc1cccc(N/C(N)=N/c2nc(C)cc(C)n2)c1 | -28% |
| CCOc1ccc(OCC(=O)OCC(=O)N2CCN(C(=O)c3ccco3)CC2)cc1 | -21.9% |
| S=c1[nH]nc(CSCc2ccc(Cl)cc2Cl)n1-c1ccccc1 | 6.18% |
| Cc1ccc(NC2=C(Cl)C(=O)OC2OC(=O)c2ccco2)c(C)c1 (stereo not drawn) | -16.5% |
| COc1ccc(NC(=O)CSc2nnc(-c3ccccc3C)n2N)cc1 | 31.2% |
| CC1CC(C)CN(C(=S)Nc2ccc(OC(F)F)cc2)C1 (stereo not drawn) | -36.6% |
| O=C(N/N=C/c1ccsc1)c1cc2ccccc2o1 | 18.3% |
| CCN(CC)C(=O)CSc1nc(O)cc(=O)n1-c1ccccc1OC | 0.0306% |
| CCOC(=O)c1cnn(-c2ncnc3sc4c(c23)CCC4)c1N | -0.531% |
| COc1ccc(C)cc1NC(=O)CN(C)S(=O)(=O)c1ccc2c(c1)CC(C)N2C(C)=O (stereo not drawn) | -48.5% |
| COc1ccccc1C(=O)COC(=O)Cn1nc(C)c([N+](=O)[O-])c1C | -0.669% |
| COc1cccc(-c2nnc(SCCOc3ccc4c(C)cc(=O)oc4c3)o2)c1 | 2.18% |
| Cc1ccc(/C=N/n2c(-c3cccc(Cl)c3)n[nH]c2=S)o1 | 4.31% |
| CCN(C(=O)COC(=O)c1cc(-c2cccs2)nc2ccccc12)C1CCS(=O)(=O)C1 (stereo not drawn) | -39% |
| O=C(Nc1nc(COc2ccccc2)cs1)C1CCC1 | -12.5% |
| CCOc1cccc(-c2c(C(=O)N/N=C/c3ccc(Br)cc3)nnn2-c2nonc2N)c1 | 11.1% |
| Cc1ccc(C)c(OCC(=O)Nc2cc(C(=O)O)cc(C(=O)O)c2)c1 | 10.8% |
| COc1ccc(NC(=S)NCCCn2ccnc2)cc1 | -0.11% |
| O=C(Nc1ccc(F)cc1F)N1CCCCC1c1cccnc1 (stereo not drawn) | -6.4% |
| N#CC1=C2SCN(Cc3ccccc3)CN2C(=O)CC1c1ccc2c(c1)OCO2 (stereo not drawn) | -10.6% |
| CCN1C(=O)/C(=C2\SC(=S)N(NC(=O)c3cccnc3)C2=O)c2ccccc21 | 20% |

— paper PMC4336329 (PLoS ONE, 2015)
